In all, about 220,000 compounds went through this assay and about 2,300 (1%) were called active. Inconclusive means that the source gave no clear call. Such entries were picked first, then a sample of the others. Calls follow the shape of the dose curve; as a rule, active = well fitted inhibition curve with a large enough effect; inconclusive = small, poorly fitted or top-dose-only effect, or effect the other way; inactive = no such curve, though single readings can be large or run the other way. No potency is given beside an inconclusive call; the fits are too rough.
target: Neuropeptide S receptor (Homo sapiens) (UniProt Q6W5P4); test: qHTS Assay for Antagonists of the Neuropeptide S Receptor: cAMP Signal Transduction; settings: CHO-NPSR cells, cAMP TR-FRET, antagonist mode; activity change, negative = inhibition: at 38.3 µM (top of the series) unless noted; also: nearly all actives have a fitted effect of over 50% in size
% is scaled to controls: 0 for no effect and ±100 for the full control effect; potency is read from the fitted curve at half-maximal effect; tags tell the direction and shape of the fitted curve.

UniProt Q6W5P4, sequence (Q6W5P4 whole entry, looked up): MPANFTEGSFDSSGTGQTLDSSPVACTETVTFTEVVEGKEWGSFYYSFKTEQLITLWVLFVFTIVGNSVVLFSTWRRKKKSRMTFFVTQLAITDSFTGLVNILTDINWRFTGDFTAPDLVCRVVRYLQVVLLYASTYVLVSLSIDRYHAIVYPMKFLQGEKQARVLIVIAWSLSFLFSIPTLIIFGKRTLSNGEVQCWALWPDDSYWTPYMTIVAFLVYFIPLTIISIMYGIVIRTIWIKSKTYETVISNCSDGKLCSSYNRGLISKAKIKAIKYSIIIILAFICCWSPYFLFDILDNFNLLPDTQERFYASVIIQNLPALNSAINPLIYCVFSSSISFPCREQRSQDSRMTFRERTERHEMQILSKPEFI

Row | Compound | Potency | activity change, negative = inhibition
1 | COc1cccc(-c2nn(-c3ccccc3)cc2/C=C\C(=O)c2cccs2)c1 | inconclusive [inhibitor, partial curve] | 
2 | CC(C)(C)c1cc(NCCCn2ccnc2)n2ncc(-c3ccccc3)c2n1 | inconclusive [activator, single point] | 
3 | CCOC(=O)c1c(N)sc2c1CCSC2 |  | inactive: 0.346% [at 46.1 µM]
4 | Cc1nc(NC(=O)c2ccc(Cl)cc2)sc1-c1csc(Nc2cccc(F)c2)n1 | inconclusive [inhibitor, single point] | 
5 | CCOC(=O)C1=C(c2ccc(OC)cc2)C(=O)c2ccccc2C1=O | inconclusive [inhibitor, single point] | 
6 | COc1cccc(F)c1C(=O)NC(=O)Nc1ccc2nc(C)oc2c1 |  | inactive: 3.43%
7 | COc1cccc(/C=N/Nc2ncnc3scc(-c4ccccc4)c23)c1OC | inconclusive [inhibitor, partial curve, poor fit] | 
8 | Cc1cccc(NC(=S)NN(Cc2ccccc2)c2ccccc2)c1C |  | inactive: -29% [at 46.1 µM]
9 | COc1ccccc1N1CCN(C(=O)c2cnn3cccnc23)CC1 | inconclusive [inhibitor, single point] | 
10 | Cc1nc(-c2ccc3c(c2)OCCCO3)cs1 |  | inactive: -5.1%
11 | Cc1cnc(NC(=O)c2cc3c(C)nn(-c4ccccc4)c3s2)s1 |  | inactive: 19.1% [at 46.1 µM]
12 | N#Cc1cc2c(nc1SCc1ccccc1)CCCC2=O | inconclusive [inhibitor, full curve, poor fit] | 
13 | COc1ccc(CCNC(=O)COC(=O)CCC(=O)c2ccc(F)cc2)cc1OC |  | inactive: 8.18%
14 | CCN(CC)c1ccc(C2C(C(=O)OC)=C(C)NC(C)=C2C(=O)OC)cc1 | inconclusive [inhibitor, partial curve, poor fit] | 
15 | CCOC(=O)/C(=C\c1ccccc1)NC(=O)c1ccccc1 | inconclusive [activator, single point] | 
16 | O=C(NCCc1ccccc1)c1ccc([N+](=O)[O-])cc1 |  | inactive: -8.08% [at 46.1 µM]
17 | CCN(CC)c1nc(-c2ccccc2)ncc1S(=O)(=O)c1ccc(C)cc1 | inconclusive [activator, partial curve] | 
18 | Cc1nn(-c2cc(N3CCCC3)ccc2[N+](=O)[O-])c(=O)c2ccccc12 | inconclusive [inhibitor, single point] | 
19 | O=C1CSc2ccc(C(=O)Nc3cccc(S(=O)(=O)Nc4ccc(Br)cc4)c3)cc2N1 | inconclusive [inhibitor, single point] | 
20 | CCSC1=C(C#N)C(c2cccc(O)c2)CC(=O)N1 (stereo not given) |  | inactive: -2.48% [at 46.1 µM]
21 | COc1ccc2c(c1)O[C@H](c1ccc3c(c1)OCO3)[C@@H](OC(=O)N[C@H]1CCCc3ccccc31)C2=O |  | inactive: -11.3%
22 | CN(C)CCCn1c(SCC(=O)Nc2nc(-c3cccc(Br)c3)cs2)nc2ccccc2c1=O | inconclusive [inhibitor, single point] | 
23 | O=C(Cn1c(=O)n(Cc2ccco2)c(=O)c2c3c(sc21)CCCCC3)c1ccccc1 | inconclusive [inhibitor, partial curve] | 
24 | C/C(=N\NC(=O)c1ccccc1)c1ccc(N2CCCCC2)cc1 |  | inactive: -3.27%

Row | Compound | Potency | activity change, negative = inhibition
25 | CC(C)c1nc2sc3ccccc3c(=O)c2c(=O)n1Cc1ccccc1 | inconclusive [activator, single point] | 
26 | COc1cc(OC)cc(C(=O)NC(=S)NCCc2ccccc2)c1 | inconclusive [inhibitor, partial curve] | 
27 | O=C(NCCO)C(O)C(O)C(=O)NCCO (stereo not given) |  | inactive: 23.1%
28 | COc1ccc(Br)c(OC)c1C(=O)NC(=O)Nc1nc(C)cc(C)n1 |  | inactive: 15.3%
29 | CS(=O)c1nc(-c2ccc(Br)cc2)cc(-c2ccccc2)c1C#N (stereo not given) | active: 12.6 µM | 
30 | Cc1ccc(-n2c(Cc3cccs3)nnc2SCC(=O)OC(C)C)cc1 | inconclusive [inhibitor, full curve] | 
31 | CC(=O)O[C@H]1C(=O)[C@@]2(C)C([C@H](OC(=O)c3ccccc3)[C@]3(O)C[C@H](OC(=O)[C@H](O)[C@@H](NC(=O)c4ccccc4)c4ccccc4)C(C)=C1C3(C)C)[C@]1(OC(C)=O)CO[C@@H]1C[C@@H]2O (stereo not given in full) | inconclusive [inhibitor, partial curve] | 
32 | COc1ccc(CNC(=O)COC(=O)CC2CCCC2)cc1 |  | inactive: 28.3%
33 | CC1CCN(C(=O)Cn2c(=O)n(Cc3ccc4c(c3)OCO4)c(=O)c3ccccc32)CC1 | inconclusive [inhibitor, partial curve] | 
34 | c1ccc2oc(SCc3cn4ccccc4n3)nc2c1 |  | inactive: -11.8% [at 46.1 µM]
35 | CC(C)Cn1c(=S)[nH]c2ccccc2c1=O |  | inactive: -31.6%
36 | O=C1C(N2CCOCC2)=C(n2nnc3ccccc32)C(=O)c2ccccc21 | inconclusive [inhibitor, single point] | 
37 | Clc1ccccc1Sc1ccc(-c2ccccn2)s1 | inconclusive [activator, partial curve] | 
38 | CCN(Cc1ccncc1)S(=O)(=O)c1ccc(C(C)=O)cc1 | inconclusive [inhibitor, single point] | 
39 | O=C(CSc1nnc(-c2ccccn2)n1Cc1ccco1)c1ccc(-c2ccccc2)cc1 | inconclusive [inhibitor, partial curve] | 
40 | CCc1nn2c(NCCOC)cc(C)nc2c1-c1ccc(F)cc1 |  | inactive: -42.5%
41 | O=C(COc1ccccc1)Nc1cc(C(F)(F)F)ccc1N1CCCC1 | inconclusive [inhibitor, partial curve] | 
42 | COC(=O)c1cc(NC(=O)c2c(F)c(F)c(F)c(F)c2F)cc(C(=O)OC)c1 |  | inactive: -14.3%
43 | COc1ccc(-c2cc(CCCC(=O)NCCc3cc(OC)ccc3OC)no2)cc1 | inconclusive [inhibitor, partial curve, poor fit] | 
44 | CCc1ccc(/C=C2\Oc3c(ccc(O)c3CN3CCN(C)CC3)C2=O)cc1 | active: 10 µM | 
45 | CC(C)(C)N=C1NN=C(c2cc3ccccc3o2)CS1 | inconclusive [inhibitor, single point] | 
46 | OC(CNCC1CCCO1)Cn1c2ccc(Br)cc2c2cc(Br)ccc21 (stereo not given) | inconclusive [inhibitor, single point] | 
47 | Cc1ccc(S(=O)(=O)c2cccc(S(=O)(=O)N3CCCC3)c2)cc1S(=O)(=O)N1CCCC1 | inconclusive [inhibitor, partial curve] | 
48 | Cc1ccc(-n2c(O)c(C=Nc3ccccc3-c3n[nH]c(=S)[nH]c3=O)c3ccccc3c2=O)cc1C | active: 1.26 µM | 

Row | Compound | Potency | activity change, negative = inhibition
49 | COc1ccccc1CN(Cc1ccco1)S(=O)(=O)c1ccc(-n2cnnn2)c(OC)c1 | inconclusive [inhibitor, partial curve] | 
50 | O=C(CSCc1ccc(Cl)cc1)Nc1ccc(-c2nnc(-c3ccccc3)o2)cc1 | inconclusive [inhibitor, single point] | 
51 | Cc1ccc(-c2nnc(-n3ncc(C#N)c3N)c3ccccc23)cc1C | inconclusive [inhibitor, partial curve] | 
52 | Cc1cc2cc(CN(Cc3cccs3)Cc3nnnn3CC3CCCO3)c(=O)[nH]c2cc1C (stereo not given) | inconclusive [inhibitor, single point] | 
53 | CCCC(C(=O)NC1CCCC1)N(Cc1ccc2c(c1)OCO2)C(=O)c1snc(C(N)=O)c1N (stereo not given) | inconclusive [inhibitor, single point] | 
54 | CCO[C@@H]1OC(C(=O)NCc2ccccc2)=C[C@H](C2CCCCC2)[C@H]1CCCO | inconclusive [activator, partial curve] | 
55 | Cc1ccc(-c2csc(N=C(N)N)n2)c(C)c1 | inconclusive [activator, single point] | 
56 | O=C1CC(c2ccco2)CC(O)=C1C=NCCN1CCN(C(=O)Nc2ccc(Cl)cc2)CC1 (stereo not given) |  | inactive: 18.2%
57 | COc1ccc(N2C(C(C)=O)=NN(c3ccccc3)C2c2cccs2)cc1 (stereo not given) | inconclusive [inhibitor, single point] | 
58 | CN(C)c1nc(SCC(=O)Nc2ccccc2)nc(N2CCOCC2)n1 |  | inactive: 11.8%
59 | CCOC(=O)N1CCN(S(=O)(=O)c2ccc(C)cc2)C1c1ccc(OC)cc1 (stereo not given) | inconclusive [inhibitor, single point] | 
60 | CCOC(=O)Cn1c(S(=O)(=O)Cc2ccc(F)cc2)nc(-c2ccccc2)c1-c1ccccc1 | inconclusive [inhibitor, partial curve] | 
61 | O=C1C(Oc2ccc(Cl)cc2)C(c2ccc3c(c2)OCO3)N1CC1CCCO1 (stereo not given) | inconclusive [activator, single point] | 
62 | O=C1CC(SC(=Nc2ccccc2)Nc2ccccc2)C(=O)N1c1cccc(Cl)c1 (stereo not given) | inconclusive [inhibitor, partial curve] | 
63 | COc1cc(/C=N/N=C(/N)c2nonc2N)cc(Br)c1OCc1cccc(C)c1 | inconclusive [inhibitor, single point] | 
64 | COc1ccc(C(C)=O)cc1COC(=O)CNC(=O)c1ccc(Cl)cc1 |  | inactive: 23.1%
65 | Cc1onc(-c2c(F)cccc2Cl)c1-c1nnc(-c2ccc(C(F)(F)F)cc2)o1 | inconclusive [activator, partial curve] | 
66 | Cc1ccc2c(Cl)cc(Cl)c(OCC(=O)Nc3cc(C)on3)c2n1 |  | inactive: 6.73% [at 46.1 µM]
67 | CC(C)(C)c1ccc(C(=O)Nc2ccc(Cl)cc2)cc1 |  | inactive: -1.3%
68 | C[n+]1cnn2c1SCC1(COC1)C2 |  | inactive: 0.626% [at 46.1 µM]
69 | COc1ccc(N/C(=C(/C(Cl)=C(Cl)Cl)[N+](=O)[O-])n2nnc3ccccc32)cc1OC |  | inactive: -12% [at 46.1 µM]
70 | CCC(C)NCC(O)(c1ccc(Cl)cc1)c1ccc(Cl)cc1 (stereo not given) | inconclusive [inhibitor, single point] | 

— PubChem BioAssay AID1461 (National Center for Advancing Translational Sciences (NCATS), 2008)
